{
  "source": "the supplement of paper PMC6660600",
  "about": "“Odorant Inhibition in Mosquito Olfaction” (iScience, 2019)",
  "note": "The list shows a part of the results. Most values come without repeats; read them as rough.",
  "data": [
    {"test_system": "CquiOR32-CquiOrco", "assay": "current response class (signed ordinal: positive = inward/excitatory, negative = outward/inhibitory) (ordinal score (-3..3)); higher = stronger inward (excitatory) current", "conditions": "1 mM; holding potential (mV): -80", "values": [
      {"compound": "CCCCCC(O)CC", "note": "(stereo not given) [3-octanol]", "current response class": "inactive: 0"},
      {"compound": "CCCCCCCCCOC(C)=O", "note": "[nonyl acetate]", "current response class": "inactive: 0"},
      {"compound": "CCCCCCCCCC=O", "note": "[decanal]", "current response class": "inactive: 0"},
      {"compound": "CCC(=O)OC", "note": "[methyl propionate]", "current response class": "inactive: 0"},
      {"compound": "CCCCCCCCCCCCCCCC(=O)OC", "note": "[methyl palmitate]", "current response class": "inactive: 0"},
      {"compound": "CC12CCC(CC1=O)C2(C)C", "note": "(racemic) [(±)-camphor]", "current response class": "active: -3"},
      {"compound": "CCCCCC(C)=O", "note": "[2-heptanone]", "current response class": "active: 0.5"},
      {"compound": "OCCc1ccccc1", "note": "[2-phenylethanol]", "current response class": "active: 1"},
      {"compound": "CCC(O)CC", "note": "[3-pentanol]", "current response class": "active: 1"},
      {"compound": "CC/C=C\\C/C=C\\C/C=C\\CCCCCCCC(=O)OCC", "note": "[ethyl linolenate]", "current response class": "active: -1"},
      {"compound": "CC(C)=CCO", "note": "[3-methyl-2-buten-1-ol]", "current response class": "inactive: 0"},
      {"compound": "C1CCNC1", "note": "[pyrrolidine]", "current response class": "inactive: 0"},
      {"compound": "Cc1ncsc1C", "note": "[4,5-dimethylthiazole]", "current response class": "active: 3"},
      {"compound": "CCCC(=O)OCC", "note": "[ethyl butyrate]", "current response class": "inactive: 0"},
      {"compound": "C=CC(=C)CCC=C(C)C", "note": "[β-myrcene]", "current response class": "inactive: 0"},
      {"compound": "Cc1ccc(C)c(O)c1", "note": "[2,5-dimethylphenol]", "current response class": "active: 1"},
      {"compound": "CC(=O)C(C)O", "note": "(stereo not given) [3-hydroxy-2-butanone]", "current response class": "inactive: 0"},
      {"compound": "CCCCCCCCCCCC=O", "note": "[1-dodecanal]", "current response class": "inactive: 0"},
      {"compound": "CC(C)CCO", "note": "[3-methyl-1-butanol]", "current response class": "inactive: 0"},
      {"compound": "CCCCCCCCCCCCCCCCCCOC(C)=O", "note": "[octadecyl acetate]", "current response class": "inactive: 0"},
      {"compound": "Cc1cccc(C(N)=O)c1", "note": "[3-methylbenzamide]", "current response class": "active: 2"},
      {"compound": "CCCCCCO", "note": "[1-hexanol]", "current response class": "active: 2"},
      {"compound": "CC/C=C\\CCO", "note": "[(Z)-3-hexen-1-ol]", "current response class": "active: 1"},
      {"compound": "CCCCCCC1CCC(=O)O1", "note": "(stereo not given) [γ-decalactone]", "current response class": "inactive: 0"},
      {"compound": "CC(=O)C(C)=CC1C(C)=CCCC1(C)C", "note": "(stereo not drawn) [α-cetone]", "current response class": "inactive: 0"},
      {"compound": "CCCCCCCCCC(C)=O", "note": "[2-undecanone]", "current response class": "inactive: 0"},
      {"compound": "CC(=O)c1ccccc1", "note": "[acetophenone]", "current response class": "active: 2"},
      {"compound": "Cc1ccc(O)cc1", "note": "[4-methylphenol]", "current response class": "inactive: 0"},
      {"compound": "CC(C)=CCCC(C)CCO", "note": "(stereo not given) [citronellol]", "current response class": "inactive: 0"},
      {"compound": "C=CC(C)(O)CCC=C(C)CCC=C(C)C", "note": "(mixture of isomers) [nerolidol]", "current response class": "inactive: 0"},
      {"compound": "CC(C)C(C)O", "note": "(stereo not given) [3-methyl-2-butanol]", "current response class": "active: 1"},
      {"compound": "CC(=O)c1cccs1", "note": "[2-acetylthiophene]", "current response class": "active: 1"},
      {"compound": "CC=O", "note": "[acetaldehyde]", "current response class": "inactive: 0"},
      {"compound": "CCCCCCCCC1CCC(=O)O1", "note": "(stereo not given) [γ-dodecalactone]", "current response class": "inactive: 0"},
      {"compound": "CC(C)CC=O", "note": "[isovaleraldehyde]", "current response class": "inactive: 0"}
    ]}
  ]
}
